Experimental findings from the supplement of paper PMC3334620 are described below.

Whole data set: some 33,000 sequences, median “E-score (-0.5 to 0.5)” near -0.017, cut for the highest 2% near 0.3. Some of the results follow.

The target in the test is T1, Sut1 (UniProt P53032).
T1 sequence: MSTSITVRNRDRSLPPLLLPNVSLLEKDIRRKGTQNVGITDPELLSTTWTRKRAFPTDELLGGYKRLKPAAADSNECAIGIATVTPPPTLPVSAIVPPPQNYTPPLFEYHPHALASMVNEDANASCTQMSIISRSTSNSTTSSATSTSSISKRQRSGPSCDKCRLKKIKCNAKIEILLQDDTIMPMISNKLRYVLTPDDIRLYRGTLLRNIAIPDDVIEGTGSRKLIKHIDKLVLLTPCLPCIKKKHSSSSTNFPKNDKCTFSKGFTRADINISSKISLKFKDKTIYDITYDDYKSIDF
Put plainly: PBM E-score (8-mer binding enrichment) (E-score (-0.5 to 0.5)); higher = stronger / more preferred TF binding; most listed sequences are background and not binding sites. Particulars: protein concentration: 200 nM; construct: GST-full length. The gist of the method:
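Masliner-normalised scans of fluorescent anti-GST signal were the basis for scoring. That signal came from GST-tagged yeast transcription factors applied at about 100-200 nM to double-stranded universal all-10-mer Agilent arrays on fresh or once-stripped slides. Each ungapped eight-base word, pooled with its reverse complement, received an E-score from the Universal PBM Analysis Suite.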
As to GATTCAAA, the “PBM E-score” value stood at 0.0792.

Turning to CAGAGCCG, the “PBM E-score” value is -0.0869.

In the case of ACGCCCCG, the “PBM E-score” value was -0.0719.

For CCTGACAC, the “PBM E-score” value was -0.0656.

As to CGGCGCCA, the “PBM E-score” value is -0.247.

Consider ACTAATGG, for which the “PBM E-score” value was 0.214.

For the sequence GATAGTGC, the “PBM E-score” value was -0.179.

For the sequence AAGAGGAG, the “PBM E-score” value is -0.0252.

ATACCTAG: the “PBM E-score” value came out at 0.0816.

Turning to CACCTTTA, the “PBM E-score” value is -0.129.

Turning to GAGTTATC, the “PBM E-score” value turned out to be 0.237.

Consider AGTGTGTA, for which the “PBM E-score” value was -0.137.

For the sequence AACATTAA, the “PBM E-score” value turned out to be 0.178.

AGTACAGA: the “PBM E-score” value is 0.0841.

As for TACCGGGA, the “PBM E-score” value was 0.229.

Take CTCATCTA: the “PBM E-score” value is 0.123.

As for ACACTCGT, the “PBM E-score” value is -0.135.

CGAATCAG: the “PBM E-score” value is -0.0807.

As to ACCGCATC, the “PBM E-score” value was -0.00154.

Consider AGATCACC, for which the “PBM E-score” value worked out at 0.00859.

On to CGCGATTC, for which the “PBM E-score” value is 0.0374.

In the case of AGCACTGG, the “PBM E-score” value is -0.115.

On to TACTACTA, for which the “PBM E-score” value was 0.235.

GATCCAAA: the “PBM E-score” value stood at 0.0639.

With CCACTGAG, the “PBM E-score” value was -0.197.

As to AGCTCACC, the “PBM E-score” value is -0.0857.

ACAACCAT: the “PBM E-score” value was determined as 0.259.

With AGTCCGAG, the “PBM E-score” value came to 0.489.

ATAACCCA: the “PBM E-score” value worked out at 0.145.

For GATTGTCA, the “PBM E-score” value was determined as 0.112.

Take CCGTTGGA: the “PBM E-score” value worked out at 0.0326.

AGAGAGAG: the “PBM E-score” value is -0.0921.

As to AACCTAGC, the “PBM E-score” value is -0.002.

Take TGCGTCAA: the “PBM E-score” value is -0.0121.

CAATTCCC: the “PBM E-score” value is 0.072.

Take CATTGCAC: the “PBM E-score” value was -0.133.

Regarding TCCGACGA, the “PBM E-score” value came to 0.287.

For ACATTAAT, the “PBM E-score” value came to 0.117.

On to CTTCAATC, for which the “PBM E-score” value amounted to 0.176.

In the case of CGGAGGGC, the “PBM E-score” value is -0.0475.

With ACCCTCGA, the “PBM E-score” value was -0.27.

With AAAATGAC, the “PBM E-score” value was found to be 0.157.

Regarding CAAATAGA, the “PBM E-score” value was determined as 0.0157.

For CTCCTAGA, the “PBM E-score” value is -0.217.

For the sequence AGAACCCT, the “PBM E-score” value is -0.185.

In the case of AGCTGTTA, the “PBM E-score” value was 0.0604.

With GTACAAGA, the “PBM E-score” value is -0.0428.

For AAGCTGTA, the “PBM E-score” value turned out to be 0.198.

On to ATTGAGCA, for which the “PBM E-score” value was -0.0233.

As for CGCAGTCA, the “PBM E-score” value was -0.147.

Regarding ACATGACT, the “PBM E-score” value was -0.19.

As to ACCTGTGG, the “PBM E-score” value is -0.141.

As for CTATTGCA, the “PBM E-score” value came to 0.118.

On to ACCGTCGC, for which the “PBM E-score” value was -0.0989.

Regarding ACGCATAC, the “PBM E-score” value came to 0.011.

Turning to AGTTTCAC, the “PBM E-score” value came to 0.0582.

Turning to CGCTGGAC, the “PBM E-score” value is -0.105.

On to CAGTTCCC, for which the “PBM E-score” value is -0.0933.

As to ACTTCCGC, the “PBM E-score” value was found to be 0.0793.

Take AGAGTGGG: the “PBM E-score” value was -0.176.

On to CAGTTGGG, for which the “PBM E-score” value is -0.207.

Consider ATAATCGA, for which the “PBM E-score” value was -0.0627.

As for CTCAGGAG, the “PBM E-score” value is -0.179.

As to ACGGCTGC, the “PBM E-score” value was -0.239.

In the case of CACCAGTG, the “PBM E-score” value was -0.182.

For CCATCGAA, the “PBM E-score” value was -0.125.

Turning to CAGACTAG, the “PBM E-score” value is -0.288.

CACGGAGG: the “PBM E-score” value is 0.0312.

Take CAAGTATA: the “PBM E-score” value turned out to be 0.0949.

As for CATACGGG, the “PBM E-score” value was -0.186.

With AGCCGTCG, the “PBM E-score” value was -0.141.

Consider AGGGAAGA, for which the “PBM E-score” value was -0.164.

With ACTGCGCG, the “PBM E-score” value is -0.154.

Take AAATACTG: the “PBM E-score” value was 0.0508.

As to TTTAAAAA, the “PBM E-score” value is 0.145.

In the case of GACTATTA, the “PBM E-score” value worked out at 0.0972.

In the case of ATAACGAT, the “PBM E-score” value amounted to 0.0584.

Consider AGGGAATC, for which the “PBM E-score” value is -0.223.

Take ATGGATAA: the “PBM E-score” value was 0.0734.

CATGTAGG: the “PBM E-score” value is -0.161.

With ATGGCAGC, the “PBM E-score” value is -0.187.

For CTCACTGC, the “PBM E-score” value was -0.0428.

Regarding AGGAAAAC, the “PBM E-score” value came out at 0.0442.

On to ACGTGATG, for which the “PBM E-score” value is -0.117.

Consider ACCACGAA, for which the “PBM E-score” value was -0.0521.

On to GTGGACGA, for which the “PBM E-score” value was -0.0595.
